PMC4336329 (PLoS ONE, 2015)
The whole screen tested about 310,000 compounds, of which about 2,200 (0.71%) showed an effect of 50% or more. The effect is printed as a negative number. The list shows a part of the results.

biological target: human ether-à-go-go-related gene (hERG) potassium channel (human, UniProt Q12809); assay: primary screen, population patch clamp on CHO cells stably expressing hERG
Sequence (Q12809 whole entry, looked up): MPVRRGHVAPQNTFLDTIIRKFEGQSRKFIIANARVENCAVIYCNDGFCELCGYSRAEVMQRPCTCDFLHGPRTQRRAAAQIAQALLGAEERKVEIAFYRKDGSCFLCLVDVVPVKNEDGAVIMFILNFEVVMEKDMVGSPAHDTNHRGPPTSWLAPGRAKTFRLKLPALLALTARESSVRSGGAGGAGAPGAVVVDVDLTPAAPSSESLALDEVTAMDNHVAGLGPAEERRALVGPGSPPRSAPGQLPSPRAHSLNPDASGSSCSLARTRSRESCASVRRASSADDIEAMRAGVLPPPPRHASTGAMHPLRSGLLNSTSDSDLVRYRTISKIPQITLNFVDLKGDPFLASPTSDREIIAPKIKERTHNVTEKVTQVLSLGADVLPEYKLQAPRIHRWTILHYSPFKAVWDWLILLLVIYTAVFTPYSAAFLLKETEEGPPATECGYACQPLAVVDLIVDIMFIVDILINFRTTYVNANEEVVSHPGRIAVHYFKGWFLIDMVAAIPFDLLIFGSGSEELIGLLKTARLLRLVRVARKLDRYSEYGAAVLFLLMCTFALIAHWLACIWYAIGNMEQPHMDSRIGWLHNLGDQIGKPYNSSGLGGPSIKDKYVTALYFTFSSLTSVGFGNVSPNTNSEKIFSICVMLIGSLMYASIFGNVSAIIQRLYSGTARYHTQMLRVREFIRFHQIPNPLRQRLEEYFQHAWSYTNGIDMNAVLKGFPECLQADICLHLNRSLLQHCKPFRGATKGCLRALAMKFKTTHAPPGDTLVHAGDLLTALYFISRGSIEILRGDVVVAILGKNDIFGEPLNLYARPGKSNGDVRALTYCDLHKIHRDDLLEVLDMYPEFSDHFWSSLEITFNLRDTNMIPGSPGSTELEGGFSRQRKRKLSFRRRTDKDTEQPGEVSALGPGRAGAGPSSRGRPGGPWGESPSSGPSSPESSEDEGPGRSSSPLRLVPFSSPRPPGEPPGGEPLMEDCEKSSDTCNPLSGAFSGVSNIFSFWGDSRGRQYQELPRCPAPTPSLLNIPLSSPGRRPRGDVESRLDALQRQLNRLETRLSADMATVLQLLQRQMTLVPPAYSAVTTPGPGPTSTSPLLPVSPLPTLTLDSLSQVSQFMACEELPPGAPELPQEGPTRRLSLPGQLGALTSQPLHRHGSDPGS

| SMILES | hERG current change (%, negative = inhibition) at 1uM [%] |
| --- | --- |
| CCSc1nnc2n(-c3ccc(OC)cc3)c(=O)c3c4c(sc3n12)CCCC4 | 1.41 |
| O=C(Nc1cccc(NS(=O)(=O)c2ccc(S(=O)(=O)NC3CC3)cc2)c1)c1ccccn1 | 8.94 |
| COc1ccc(-c2noc3c2-c2nc(-c4ccc(Br)cc4)sc2CC3)cc1 | 15 |
| CC(=O)Oc1ccccc1C1OCCN1C(C)=O (stereo not shown) | 9.33 |
| CS(=O)(=O)N(Cc1ccccc1)c1ccc(C(=O)NCCSc2ccccn2)cc1 | 7.96 |
| Oc1c(Br)cc(Br)cc1CNc1ccc(F)cc1 | 12.9 |
| O=S(=O)(Cc1ccccc1)N1CCC(c2nc(-c3cccs3)no2)CC1 | -1.55 |
| O=C(Cn1nc(-c2ccccc2)c2ccccc2c1=O)NCC1CCCO1 (stereo not shown) | 11.5 |
| Cc1ccc(SCCC(=O)Nc2ccc(OCc3ccccc3)cc2)cc1 | 13 |
| COc1ccc(O)c(/C=N/c2nc3ccccc3n2C)c1 | 3.85 |
| Cc1nnc(Nc2ccc(Cl)c(C(F)(F)F)c2)[nH]c1=O | 3.48 |
| O=C(CSc1nc2[nH]c(=O)cc(O)c2s1)Nc1cccc(Br)c1 | 18.8 |
| O=C(COC(=O)C1CC2CCCC(C1)C2=O)NC(=O)c1ccc(OC(F)F)cc1 (stereo not shown) | 10.5 |
| CN1CCN(c2ccc(Cl)cc2NC(=O)CN2C(=O)NC(C)(c3ccccc3)C2=O)CC1 (stereo not shown) | 5.3 |
| CCCS(=O)(=O)N1CCC(C(=O)NCCN(CC)c2ccccc2)CC1 | -1.32 |
| O=C(c1ccc(F)cc1)N1CCC(N2CCCCCC2)CC1 | -4.92 |
| NS(=O)(=O)c1ccc(NC(=S)NC(=O)c2ccco2)cc1 | 8.09 |
| Cc1ccc(-n2c(N)c(C(=O)NCc3ccco3)sc2=S)cc1 | 6.79 |
| OCCC1CN(Cc2ccc3nonc3c2)CCN1Cc1ccsc1 (stereo not shown) | -49.8 |
| Cc1nnsc1C(=O)NNc1c(Cl)cccc1Cl | 7.41 |
| COc1ccc(C(=O)NC(=S)NNC(=O)c2cccc(C)c2)cc1 | 14.4 |
| CCCNC(=O)CN1C(=O)NC2(CCCc3cc(OC)ccc32)C1=O (stereo not shown) | -4.9 |
| O=C1C2C3C=CC(C3=C3CCCCC3)C2C(=O)N1Cc1ccccc1 (stereo not shown) | 6.73 |
| CCOC(=O)Cc1csc(NC(=O)CSc2nnc(-c3ccc(C)cc3)o2)n1 | 8.95 |
| OCC1(CCOc2ccccc2)CCN(Cc2ccncc2)CC1 | -0.954 |
